Measurements published in PubChem BioAssay AID1671193 (National Center for Advancing Translational Sciences (NCATS), 2021).
The whole screen tested about 150,000 compounds, of which about 180 (0.12%) were called active. The inconclusive results got no clear call from the source; some entries with a clear call stand among them for comparison. Calls come from the whole dose curve; as a rule, active = well fitted cell-killing curve with a large enough effect; inconclusive = small, poorly fitted or top-dose-only effect, or effect the other way; inactive = flat fitted curve, though single readings scatter. Potencies beside an inconclusive call are fits to weak or partial responses and may not hold up.

Assay: GF-AFC viability counterscreen for inhibitors of alpha-synuclein gene (SNCA) expression; note: nearly all actives have a fitted effect of over 30% in size;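 for activity change, negative = cytotoxicity: 0% = DMSO-treated cells and -100% = medium-only wells without cells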
Settings: HEK-293-SNCA-luc viability, GF-AFC fluorescence, 24 h; activity change, negative = cytotoxicity: at 57.1 µM (top of the series) unless noted
Outline: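 Cytotoxicity counterscreen: after 24 h compound treatment of genome-edited SNCA-luciferase HEK-293 cells, live-cell protease substrate GF-AFC read by fluorescence after 30 min; activity scaled between DMSO (0%) and medium-only (-100%), curves Hill-fitted.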
Potency is the fitted concentration of half-maximal effect; tags give direction and shape of the fitted curve.

Row | Compound | activity change, negative = cytotoxicity | Potency
1 | O=C(CN1C(=O)C(c2ccccc2)=NC12CCCC2)Nc1ccc(C(F)(F)F)cc1 | inactive: -4.4% [at 12.5 µM] | 
2 | CN(C)CCN1CC2(CCCN(C(=O)CCCn3cnnn3)C2)CCC1=O (stereo unspecified) |  | inconclusive: 1.26 µM [cytotoxic, full curve, poor fit]
3 | CCOc1ccccc1CNC(=O)c1cc2cn(C3CCCC3)cc2s1 |  | inactive
4 | Cc1ccccc1-c1nc2cnccn2c1NCCC(=O)NCc1ccco1 |  | inconclusive: 31.6 µM [rising, single point]
5 | O=C(NCc1ccco1)c1ccc2c(c1)n(Cc1ccc(F)cc1)c(=O)c1ccnn12 |  | inconclusive: 31.6 µM [cytotoxic, single point]
6 | COc1cccc(C(=O)NC2CCCN(Cc3ccc(-c4cccc(OC)c4)cc3)C2)c1 (stereo unspecified) |  | inconclusive: 28.2 µM [cytotoxic, single point]
7 | Cc1cccn2c(=O)c(/C=C(\C#N)c3nc4ccccc4n3C)c(Oc3ccc(Br)cc3)nc12 |  | inconclusive: 4.47 µM [rising, full curve]
8 | CCOc1cc(C2C(C(=O)OC)=C(C)NC3=C2C(=O)c2ccccc23)ccc1O (stereo unspecified) |  | inconclusive: 11.2 µM [cytotoxic, partial curve, poor fit]
9 | N[C@H]1CN(c2cncc(C(=O)N3CCCCC3)n2)C[C@@H]1C1CC1 |  | inactive
10 | COc1ccc(C(=O)N2CCCC2c2nc(C3CCOCC3)no2)cn1 (stereo unspecified) |  | inconclusive: 6.31 µM [cytotoxic, partial curve]
11 | O=C(CN1C(=O)COc2ccc(S(=O)(=O)N3CCCCC3)cc21)NCc1ccc(F)cc1 |  | inconclusive: 11.2 µM [cytotoxic, partial curve]
12 | Cc1cccc(C)c1OCC(=O)NCC1(N2CCOCC2)CCCCC1 |  | inconclusive: 2.82 µM [rising, single point]
13 | CSc1ccc(-c2cccc(C(=O)NCC(=O)N(C)C)c2)cc1 |  | inactive
14 | COc1ccc(-c2ccnc(N[C@H]3CO[C@H]4[C@@H]3OC[C@H]4OCC(=O)N(C)C)n2)cc1 |  | inconclusive: 35.5 µM [rising, single point]
15 | COc1ccccc1C(=O)NC[C@@H]1C=C(C)[C@H](CC(=O)N2CCCC2)C[C@H]1C(C)C |  | inconclusive: 2.51 µM [cytotoxic, full curve, poor fit]
16 | O=C(NC1CCN(Cc2cccc(-c3cccs3)c2)CC1)c1ccccn1 | inactive: -4.83% [at 12.5 µM] | 
17 | CC(=O)Nc1ccc(CNC(=O)CN2CCN(C(C)=O)CC2)cc1 |  | inactive
18 | CCC(=O)N1CCN(c2nc3c(s2)CC(C(=O)N2CCCCC2)CC3)CC1 (stereo unspecified) |  | inconclusive: 2.24 µM [rising, full curve, poor fit]
19 | O=C(N[C@H]1CCN2C(=O)c3cc(-c4ccccc4)ccc3NC(=O)[C@H]12)c1cccs1 |  | inactive
20 | CCc1ccc(CN2CCC(O)(Cc3cc(-c4cccc(OC)c4)no3)CC2)o1 |  | inactive
21 | CCNc1ncc2nc(-c3ccccc3)c(=O)n(CCOC)c2n1 |  | inconclusive: 28.2 µM [rising, partial curve, poor fit]

Row | Compound | activity change, negative = cytotoxicity | Potency
22 | COc1ncccc1-c1ncc2c(n1)OCCN(c1ccccc1)C2=O |  | inactive
23 | CCC1=Nc2cc(C(=O)NCCCOC)ccc2Sc2ccc(Br)cc21 |  | inconclusive: 0.447 µM [cytotoxic, full curve, poor fit]
24 | Cc1cccc(C(=O)Nc2c(-c3ccccc3)nc3cc(C)ccn23)c1 |  | inconclusive: 7.08 µM [cytotoxic, partial curve, poor fit]
25 | COc1ccc(NC(=O)c2cccc3c2CCN3C(=O)c2ccc(F)cc2)cc1 |  | inactive
26 | COc1ccccc1-c1cccc(CN2CCCC(C(=O)NCC3CC3)C2)c1 (stereo unspecified) |  | inactive
27 | COc1ccc(-c2nc3scc(CCNS(=O)(=O)c4ccc(C)cc4)n3n2)cc1 |  | inconclusive: 8.91 µM [cytotoxic, full curve, poor fit]
28 | O=C(N[C@@H](Cc1ccccc1)C(=O)CCl)OCc1ccccc1 |  | inconclusive: 20 µM [cytotoxic, partial curve, poor fit]
29 | CCOC(=O)C1CCN(S(=O)(=O)c2cc(Br)cc3c2N(C(=O)CC)CC3)CC1 |  | inconclusive: 0.398 µM [rising, full curve, poor fit]
30 | O=C(NCC1CCCO1)c1ccc(Cn2ccn3nc4c(c3c2=O)CCCC4)cc1 (stereo unspecified) |  | inconclusive: 20 µM [cytotoxic, partial curve, poor fit]
31 | COc1cccc([C@H]2CN(C(=O)c3c(C)nn4c(C)cc(C)nc34)C[C@@H]2N)c1 |  | inactive
32 | COc1ccc(CNC(=O)c2ccc(Cn3ccn4nc5c(c4c3=O)CCCC5)cc2)cc1 |  | inconclusive: 11.2 µM [cytotoxic, partial curve, poor fit]
33 | CC(C)c1noc(-c2cn(C3CCN(C(=O)c4cccc(OC(F)(F)F)c4)C3)nn2)n1 (stereo unspecified) |  | inconclusive: 39.8 µM [cytotoxic, single point]
34 | CCC(=O)Nc1ccccc1-c1nc2ccccc2n(C(CC)C(=O)Nc2cccc(Cl)c2)c1=O (stereo unspecified) |  | inconclusive: 17.8 µM [cytotoxic, partial curve, poor fit]
35 | Cc1ccc(-c2cn3c(n2)N(C(=O)c2cnn4cccnc24)CCC3)cc1 |  | inactive
36 | CCOc1ccccc1NC(=O)CN1C(=O)COc2ccc(S(=O)(=O)NC3CCCC3)cc21 |  | inconclusive: 8.91 µM [cytotoxic, partial curve, poor fit]
37 | COc1ccc(-c2noc(-c3cccn3CC(=O)NCCc3ccccc3)n2)cc1F |  | inconclusive: 22.4 µM [cytotoxic, single point]
38 | Cc1ccc2oc(C(=O)Nc3sc4c(c3C(=O)NCc3cccnc3)CCCC4)cc(=O)c2c1 |  | inconclusive: 35.5 µM [rising, single point]
39 | Cc1ccc(-n2nc3c(=O)n(CCCC(=O)NC(C)c4ccccc4)nc(C)c3c2C)cc1 (stereo unspecified) |  | inactive
40 | Cc1ccc(CSc2oc(-c3cccs3)nc2S(=O)(=O)c2ccc(C)cc2)cc1 |  | inactive
41 | COc1ccc(-c2nc(SCC(=O)Nc3ccc4c(c3)OCCO4)c(-c3ccccc3)[nH]2)cc1 |  | inconclusive: 31.6 µM [cytotoxic, partial curve, poor fit]
